The values below come from PMC6919601, “Identification of Plasmodium dipeptidyl aminopeptidase allosteric inhibitors by high throughput screening” (PLoS ONE, 2019).

Molecules are shown by their SMILES. “And” between values parts separate entries of the source, which are not always exact repeats. Identical values can stand only once. About 230 (0.21%) of roughly 110,000 compounds showed an effect of 50% or more. This is one part of the list.
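Further: 30 min substrate incubation versus DMSO and 10 µM JCP410 controls.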

DPAP1, sequence (Q8IIJ9 whole entry, looked up): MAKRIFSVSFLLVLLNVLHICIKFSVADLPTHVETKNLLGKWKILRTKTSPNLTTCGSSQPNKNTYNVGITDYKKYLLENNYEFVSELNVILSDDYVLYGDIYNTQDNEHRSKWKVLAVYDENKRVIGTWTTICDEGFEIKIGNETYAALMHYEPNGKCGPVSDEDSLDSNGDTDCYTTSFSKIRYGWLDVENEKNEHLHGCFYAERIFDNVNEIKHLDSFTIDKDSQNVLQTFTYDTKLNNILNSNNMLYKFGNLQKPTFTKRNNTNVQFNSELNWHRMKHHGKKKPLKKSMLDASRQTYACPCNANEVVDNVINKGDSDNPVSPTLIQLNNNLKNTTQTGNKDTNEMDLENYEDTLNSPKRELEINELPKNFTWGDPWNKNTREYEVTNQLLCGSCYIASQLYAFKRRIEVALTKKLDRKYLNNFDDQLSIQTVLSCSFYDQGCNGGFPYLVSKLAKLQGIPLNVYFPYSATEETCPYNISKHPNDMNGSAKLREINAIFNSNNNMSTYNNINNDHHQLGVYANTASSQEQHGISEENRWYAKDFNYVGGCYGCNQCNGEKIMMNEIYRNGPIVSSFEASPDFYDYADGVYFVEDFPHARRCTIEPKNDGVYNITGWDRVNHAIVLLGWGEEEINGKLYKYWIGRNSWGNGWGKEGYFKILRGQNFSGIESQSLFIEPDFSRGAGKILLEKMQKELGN

This test has as its target DPAP1 (Plasmodium falciparum, UniProt Q8IIJ9). The experiment in a line: primary screen, percent inhibition; read by cleavage of a fluorogenic dipeptide substrate; higher = more effect of the substance. The arrangement: species or system P. falciparum D10 trophozoite lysates; single well.
As for `O=C1c2ccc3c4c(ccc(c24)C(=O)N1c1ccccn1)C(=O)N(c1ccccn1)C3=O`, the “% Inhibition @ 10 uM” value was -11.6%.

As for `Cc1nn(Cc2cccc(C(=O)Nc3nc4ccc(S(C)(=O)=O)cc4s3)c2)c(C)c1Cl`, the “% Inhibition @ 10 uM” value stood at 0.413%.

Take `CC(C)(O)C(=O)/C=C/c1ccccc1`: the “% Inhibition @ 10 uM” value is recorded as -5.5%.

As for `C=CCNC(=O)C1CC=CCC1C(=O)Nc1ccc(OC)cc1` (stereo not shown), the “% Inhibition @ 10 uM” value is recorded as 1.42%.

As to `COc1ccccc1N1C(=O)NC(=O)/C(=C\c2ccc(Cl)cc2Cl)C1=O`, the “% Inhibition @ 10 uM” value was found to be 2.58%.

Turning to `O=C1CCSc2c1cccc2C(=O)NCc1ccccn1`, the “% Inhibition @ 10 uM” value was -0.495%.

As to `O=C(O)c1ccccc1Nc1ccc(F)cc1`, the “% Inhibition @ 10 uM” value is listed as -0.891%.

As for `CCCN(CCC)c1ccc([N+](=O)[O-])c2nonc12`, the “% Inhibition @ 10 uM” value is 4.15%.

Regarding `COc1cc(C(=O)ON2C(=O)c3ccccc3C2=O)cc(OC)c1OC`, the “% Inhibition @ 10 uM” value is listed as 26.3%.

Consider `CCC1CCc2c(sc(NC(=O)c3cccc(OC)c3OC)c2C(N)=O)C1` (stereo not shown), for which the “% Inhibition @ 10 uM” value was found to be 3.83%.

As for `OC(c1ccccc1)(C1CCCCC1)C(CN1CCOCC1)c1ccccc1` (stereo not shown), the “% Inhibition @ 10 uM” value was -5.92%.

On to `CC(=O)c1ccc(NC(=O)c2ccc(C)cc2)cc1`, for which the “% Inhibition @ 10 uM” value is -7.18%.

For the compound `CCNC(=O)CN(c1ccc(Cl)cc1)S(=O)(=O)c1ccc(C)cc1`, the “% Inhibition @ 10 uM” value was determined as 22.2%.

Turning to `CS(=O)(=O)N(CC(=O)N1CCN(c2cccc(Cl)c2)CC1)c1cc(Cl)ccc1Cl`, the “% Inhibition @ 10 uM” value is listed as 16.2%.

In the case of `COC(=O)c1cc(S(=O)(=O)NCCN(Cc2ccco2)C(C)(C)C)c[nH]1`, the “% Inhibition @ 10 uM” value is on record as -4.52%.

As to `CC(=O)c1c(C)nc2ccccc2c1N`, the “% Inhibition @ 10 uM” value was 2.77%.

For `Cc1c(C(c2ccc(O)cc2)c2c(C)n(C)n(-c3ccccc3)c2=O)c(=O)n(-c2ccccc2)n1C`, the “% Inhibition @ 10 uM” value is -6.44%.

`Cc1ccc(S(=O)(=O)N2C(=O)c3cccc4c(Br)ccc2c34)cc1`: the “% Inhibition @ 10 uM” value was 2.69% and 4.31%.

Take `COCCNC(=O)c1ccc(CSc2nc3ccncc3n2Cc2ccccc2C)cc1`: the “% Inhibition @ 10 uM” value was found to be 1.41%.

Take `Cc1ccccc1Cn1c(C)cc(C)c(C#N)c1=O`: the “% Inhibition @ 10 uM” value is on record as -0.406%.

For `Cc1ccc(OCC(=O)O/N=C(\N)c2cccnc2)c(Br)c1`, the “% Inhibition @ 10 uM” value stood at 1.84%.

`O=c1c2ccccc2nc(CN2CCN(c3ccccn3)CC2)n1-c1ccc(F)cc1`: the “% Inhibition @ 10 uM” value is recorded as 0.245%.

Turning to `Cc1cc(C)n(-c2nc3ccccc3nc2NCCc2ccc(Cl)cc2)n1`, the “% Inhibition @ 10 uM” value turned out to be 0.166%.

Turning to `Cc1nn(CC(=O)NC(C)C)c(=O)c2cc3occc3n12`, the “% Inhibition @ 10 uM” value is -2%.

As to `COc1ccc(-c2cn3c(n2)sc2cc(C(=O)NC(C)c4ccc5c(c4)OCCO5)ccc23)cc1` (stereo not shown), the “% Inhibition @ 10 uM” value was 5.11%.

Take `Cc1cccc(OCC(=O)Nc2cc(C)c(C)cc2O)c1`: the “% Inhibition @ 10 uM” value is on record as -3.13%.

On to `CCn1cc(C2=NOC(C(=O)Nc3cc(C)nn3-c3ccccc3)C2)c(C)n1` (stereo not shown), for which the “% Inhibition @ 10 uM” value was -1.37%.

Take `N#CC1=C(SCC(=O)Nc2ccccc2)NC(=O)CC1c1ccc(F)cc1` (stereo not shown): the “% Inhibition @ 10 uM” value came out at 0.673%.

For `O=C(C1CCCN(c2ncnc3c2nc2n3CCCCC2)C1)N1CCN(c2ncccn2)CC1` (stereo not shown), the “% Inhibition @ 10 uM” value is on record as -0.238%.

For `Clc1ccc(OCCCCCCn2ccnc2)cc1`, the “% Inhibition @ 10 uM” value is -6.44%.

Turning to `Cc1cccnc1NC(=O)C1CCN(S(=O)(=O)c2c(C)noc2/C=C/c2cccs2)CC1`, the “% Inhibition @ 10 uM” value is listed as -3.09%.

In the case of `CN(C)S(=O)(=O)c1ccc(C(=O)C2=C(O)C(=O)N(Cc3cccnc3)C2c2cccnc2)cc1` (stereo not shown), the “% Inhibition @ 10 uM” value is reported as -5.35%.

As to `CN1CCN(CC(O)Cn2cnc3c2c(=O)n(C)c(=O)n3C)CC1` (stereo not shown), the “% Inhibition @ 10 uM” value is listed as 2.24%.

Take `N#CCNC(=O)C(CC(=O)c1ccc(-c2ccc(Cl)cc2)cc1)CS(=O)(=O)Cc1ccccc1` (stereo not shown): the “% Inhibition @ 10 uM” value is listed as -5.21%.

In the case of `COc1ccccc1NC(=O)C1CC(=O)N(C)/C(=N/c2cccc(F)c2)S1` (stereo not shown), the “% Inhibition @ 10 uM” value turned out to be 0.674%.

Regarding `Cc1cc(C)c(C#N)c(SCc2ccccc2)n1`, the “% Inhibition @ 10 uM” value was -0.305%.

For `Cc1ccc(OCC(=O)Nc2ccc(N3CCN(C)CC3)cc2)cc1C`, the “% Inhibition @ 10 uM” value is -2.82%.

On to `COc1ccc(OC)c2sc(N(CCCN(C)C)C(=O)c3cccc(Cl)c3)nc12`, for which the “% Inhibition @ 10 uM” value was found to be 0.49%.

With `COc1ccc(NC(=O)CN(c2ccc(OC)c(Cl)c2)S(C)(=O)=O)c(OC)c1`, the “% Inhibition @ 10 uM” value turned out to be 1.89%.

In the case of `COc1cc(C(=O)OCCCn2c(=O)c3c(ncn3CC(O)CO)n(C)c2=O)cc(OC)c1OC` (stereo not shown), the “% Inhibition @ 10 uM” value is given as -1.22%.

As for `CCN(CC)C(=O)CN(c1cc2c(cc1OC)oc1ccccc12)S(=O)(=O)c1ccccc1`, the “% Inhibition @ 10 uM” value was -5.23%.

For `Cc1ccc(-c2c(C#N)c(N)nc3c2CCCC3)s1`, the “% Inhibition @ 10 uM” value was determined as 2.09%.

For the compound `O=C(Cc1ccccc1)Nc1ccc2c(c1)S(=O)(=O)c1cc(NC(=O)Cc3ccccc3)ccc1-2`, the “% Inhibition @ 10 uM” value is on record as -10.9%.

For `COc1cc2ccccc2cc1C(=O)Nc1nc2c(s1)CCc1ccccc1-2`, the “% Inhibition @ 10 uM” value was determined as 0.997%.

Turning to `COc1ccc(N2C(=O)NC(NC(=O)c3cccnc3)(C(F)(F)F)C2=O)cc1` (stereo not shown), the “% Inhibition @ 10 uM” value is -0.425%.

In the case of `CCOc1ccc(NC(=O)CSC2=C(C#N)C(c3cccs3)C3=C(O)CC(C)(C)CC3=N2)cc1` (stereo not shown), the “% Inhibition @ 10 uM” value stood at 0.751%.

With `CCCC(=O)Nc1cc(N(C)C)nc2c1CCC2`, the “% Inhibition @ 10 uM” value is -3.63%.

Regarding `CN1CCN(C(=O)Cn2cnc3c2c(=O)n(C)c(=O)n3C)CC1`, the “% Inhibition @ 10 uM” value is on record as -5.83%.

On to `O=C(NC1CCN(c2ncccn2)CC1)c1ccco1`, for which the “% Inhibition @ 10 uM” value is 0.596%.

Regarding `CC(C)C[C@H](NC(=O)c1ccc(-c2ccsc2C(N)=O)cc1)C(=O)NCC#N`, the “% Inhibition @ 10 uM” value was 1.35%.

For the compound `Fc1ccc(-n2ncc3c(NCCc4ccccc4)ncnc32)cc1`, the “% Inhibition @ 10 uM” value was 1.91%.

`COc1cccc(S(=O)(=O)NCc2ccc(C(=O)N3CCN(C)CC3)cc2)c1`: the “% Inhibition @ 10 uM” value is given as -1.61%.

Regarding `O=C(COc1ccc(Cl)cc1)Nc1ccc(S(=O)(=O)N2CCCCC2)cc1`, the “% Inhibition @ 10 uM” value stood at 0.0974%.

For `Cc1cc(C)c(C#N)c(SCC(=O)Nc2cccc3ccccc23)n1`, the “% Inhibition @ 10 uM” value is on record as -0.736%.

In the case of `CC1CCCCN1Cc1c(O)ccc2ccccc12` (stereo not shown), the “% Inhibition @ 10 uM” value was -2.24%.

As for `COc1ccc(-c2cc(C(F)(F)F)nc(SCC(=O)Nc3cccnc3)n2)cc1`, the “% Inhibition @ 10 uM” value was -2.09%.

Regarding `CCN(CC)CC(=O)N1c2ccccc2Sc2ccc(C(F)(F)F)cc21`, the “% Inhibition @ 10 uM” value is -3.6%.

Turning to `CC(=O)N1Cc2ccccc2C(C)CC12CCCC2` (stereo not shown), the “% Inhibition @ 10 uM” value is on record as -1.37%.

Consider `CCOC(=O)N1CCC(NC(=O)C(C)n2c3ccccc3c3cnn(C)c(=O)c32)CC1` (stereo not shown), for which the “% Inhibition @ 10 uM” value is on record as -0.281%.

For the compound `CCN(CC)CCCCOc1cccc2ccccc12`, the “% Inhibition @ 10 uM” value was 3%.

As to `NS(=O)(=O)c1ccc(CCNS(=O)(=O)c2cccc3nsnc23)cc1`, the “% Inhibition @ 10 uM” value is 5.11%.
